Reference: paper PMC7708041
These are yes or no findings as the source states them, for the method shown. Binding seen in cells or lysates may run through a third protein. Some binding calls cover weakened binding; strength is not graded here. Where a sequence is shown, tags or fusion partners need not be part of it.

Tests used:
Test in all cases: co-IP; TAP-tagged Tof1 proteins captured on IgG Sepharose from cleared lysates of exponentially growing yeast; 2 h, 4°C; lysis buffer 50 mM HEPES pH 7.5, 300 mM KCl, 5 mM EDTA, 10 mM MgOAc, 10% glycerol, 0.01% Triton X-100; eluted in 0.2 M glycine pH 3.0; western blot with anti-Csm3
[1] = molecular target: T1, tof1 1182 truncation protein, C terminally TAP tagged (S. cerevisiae) (UniProt P53840)
T1 sequence: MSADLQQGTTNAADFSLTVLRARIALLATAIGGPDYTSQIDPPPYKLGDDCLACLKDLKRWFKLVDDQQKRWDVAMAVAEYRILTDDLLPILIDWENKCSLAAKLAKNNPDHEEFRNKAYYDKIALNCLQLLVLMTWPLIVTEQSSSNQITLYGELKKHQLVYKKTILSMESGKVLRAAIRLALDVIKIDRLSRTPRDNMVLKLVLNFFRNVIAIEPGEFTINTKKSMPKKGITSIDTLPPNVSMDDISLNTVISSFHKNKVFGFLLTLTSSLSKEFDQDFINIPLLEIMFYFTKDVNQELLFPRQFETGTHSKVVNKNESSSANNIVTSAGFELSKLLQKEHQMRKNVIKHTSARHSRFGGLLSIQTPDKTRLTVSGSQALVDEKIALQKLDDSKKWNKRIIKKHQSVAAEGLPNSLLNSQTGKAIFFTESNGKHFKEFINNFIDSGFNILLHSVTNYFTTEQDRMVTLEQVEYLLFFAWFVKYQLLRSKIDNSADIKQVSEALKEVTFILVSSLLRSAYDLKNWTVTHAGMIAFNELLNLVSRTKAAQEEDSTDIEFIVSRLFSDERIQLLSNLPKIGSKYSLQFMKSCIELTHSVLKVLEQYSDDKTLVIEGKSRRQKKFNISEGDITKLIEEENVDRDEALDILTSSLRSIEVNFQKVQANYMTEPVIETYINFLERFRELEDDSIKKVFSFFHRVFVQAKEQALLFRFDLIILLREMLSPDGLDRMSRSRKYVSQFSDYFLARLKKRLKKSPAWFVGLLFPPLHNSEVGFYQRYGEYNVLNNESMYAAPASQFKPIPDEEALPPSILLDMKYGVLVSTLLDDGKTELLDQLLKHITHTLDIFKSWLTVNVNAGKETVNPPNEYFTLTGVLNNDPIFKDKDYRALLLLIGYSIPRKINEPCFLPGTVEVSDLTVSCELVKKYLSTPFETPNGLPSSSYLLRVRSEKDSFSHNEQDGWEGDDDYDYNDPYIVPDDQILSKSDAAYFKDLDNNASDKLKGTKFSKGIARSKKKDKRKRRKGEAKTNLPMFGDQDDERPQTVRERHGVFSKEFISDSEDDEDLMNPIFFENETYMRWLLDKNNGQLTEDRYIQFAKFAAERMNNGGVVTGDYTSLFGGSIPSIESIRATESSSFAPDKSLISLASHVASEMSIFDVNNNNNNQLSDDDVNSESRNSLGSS

[2] = molecular target: T2, tof1 627 truncation protein, C terminally TAP tagged (S. cerevisiae) (UniProt P53840)
T2 sequence: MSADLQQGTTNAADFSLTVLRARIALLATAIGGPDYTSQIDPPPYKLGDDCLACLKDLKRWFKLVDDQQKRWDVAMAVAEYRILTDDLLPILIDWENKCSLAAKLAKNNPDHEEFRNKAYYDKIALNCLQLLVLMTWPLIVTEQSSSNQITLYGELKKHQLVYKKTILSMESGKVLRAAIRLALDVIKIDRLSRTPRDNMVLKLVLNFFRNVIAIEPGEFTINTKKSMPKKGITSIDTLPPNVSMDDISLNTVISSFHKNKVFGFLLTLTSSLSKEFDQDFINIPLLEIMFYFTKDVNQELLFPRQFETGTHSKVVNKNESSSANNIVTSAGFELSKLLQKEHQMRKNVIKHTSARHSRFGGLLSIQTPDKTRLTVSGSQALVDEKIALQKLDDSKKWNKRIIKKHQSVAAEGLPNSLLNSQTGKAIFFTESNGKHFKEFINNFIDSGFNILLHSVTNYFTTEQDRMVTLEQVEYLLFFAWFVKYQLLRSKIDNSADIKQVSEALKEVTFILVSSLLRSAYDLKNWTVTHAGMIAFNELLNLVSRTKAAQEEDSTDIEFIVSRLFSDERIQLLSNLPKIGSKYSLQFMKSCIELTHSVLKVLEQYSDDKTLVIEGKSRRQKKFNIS

[3] = molecular target: T3, tof1 762 truncation protein, C terminally TAP tagged (S. cerevisiae) (UniProt P53840)
T3 sequence: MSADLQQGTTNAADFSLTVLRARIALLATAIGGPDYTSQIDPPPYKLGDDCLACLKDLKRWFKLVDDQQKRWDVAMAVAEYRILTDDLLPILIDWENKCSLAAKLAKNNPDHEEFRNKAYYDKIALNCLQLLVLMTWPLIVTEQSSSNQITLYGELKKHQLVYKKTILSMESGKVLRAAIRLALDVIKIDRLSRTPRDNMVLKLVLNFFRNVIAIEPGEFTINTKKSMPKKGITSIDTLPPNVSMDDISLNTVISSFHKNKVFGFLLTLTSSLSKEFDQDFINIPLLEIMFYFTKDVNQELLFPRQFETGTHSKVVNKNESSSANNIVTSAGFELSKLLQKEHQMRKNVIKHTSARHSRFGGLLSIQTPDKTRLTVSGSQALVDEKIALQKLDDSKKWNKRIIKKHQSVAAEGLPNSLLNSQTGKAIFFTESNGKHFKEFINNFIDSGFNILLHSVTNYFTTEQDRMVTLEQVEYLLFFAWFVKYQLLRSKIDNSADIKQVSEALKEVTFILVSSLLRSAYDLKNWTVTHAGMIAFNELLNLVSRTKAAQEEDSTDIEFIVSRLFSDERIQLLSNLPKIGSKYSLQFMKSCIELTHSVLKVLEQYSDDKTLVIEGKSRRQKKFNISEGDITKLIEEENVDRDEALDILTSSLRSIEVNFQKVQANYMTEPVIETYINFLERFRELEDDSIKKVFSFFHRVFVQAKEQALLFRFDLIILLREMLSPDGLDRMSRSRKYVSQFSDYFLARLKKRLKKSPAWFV

B1: Csm3 (protein, UniProt Q04659 1-317)
chain: MDQDFDSLLLGFNDSDSVQKDPTVPNGLDGSVVDPTIADPTAITARKRRPQVKLTAEKLLSDKGLPYVLKNAHKRIRISSKKNSYDNLSNIIQFYQLWAHELFPKAKFKDFMKICQTVGKTDPVLREYRVSLFRDEMGMSFDVGTRETGQDLERQSPMVEEHVTSAEERPIVADSFAQDKRNVNNVDYDNDEDDDIYHLSYRNRRGRVLDERGNNETVLNNVVPPKEDLDALLKTFRVQGPVGLEENEKKLLLGWLDAHRKMEKGSMTEEDVQLIQSLEEWEMNDIEGQHTHYDLLPGGDEFGVDQDELDAMKEMGF
[1]
  binding: binds
[2]
  binding: no binding
[3]
  binding: no binding
